# Reference: the supplement of paper PMC8728848
# This is one part of the list.
# How the values were obtained:
# Assay in all cases: glycan array binding signal (z-score within array); higher = stronger binding
# Settings in all cases: glycan notation: IUPAC condensed, linker removed
# [1] = biological target: GlcNAc(a1-6)Gal(b1-4)GlcNAc
# Outline: (§1)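 From the Consortium for Functional Glycomics database, 3228 arrays were curated, keeping only those whose protein sequence was available. Binding is given as a within-array Z-score averaged across arrays sharing a protein sequence and across linkers. Negative Z-scores can be read as non-binding.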
# [2] = biological target: GlcNAc(b1-2)Gal(b1-3)GalNAc
# Outline: as §1
# [3] = biological target: GlcNAc(b1-2)Gal(b1-3)GlcNAc
# Outline: as §1
# [4] = biological target: GlcNAc(b1-2)Man(a1-3)[GlcNAc(b1-2)Man(a1-6)]Man(b1-4)GlcNAc(b1-4)GlcNAc
# Outline: as §1
# GlcNAc(b1-3)Gal = biological target: GlcNAc(b1-3)Gal
# Outline: as §1
# [5] = biological target: GlcNAc(b1-3)Gal(b1-3)GalNAc
# Outline: as §1
# GlcNAc(b1-3)Gal(b1-4)Glc = biological target: GlcNAc(b1-3)Gal(b1-4)Glc
# Outline: as §1
# [6] = biological target: GlcNAc(b1-3)Gal(b1-4)GlcNAc
# Outline: as §1
# [7] = biological target: GlcNAc(b1-3)Gal(b1-4)GlcNAc(b1-3)Gal(b1-4)GlcNAc
# Outline: as §1
# GlcNAc(b1-3)GalNAc = biological target: GlcNAc(b1-3)GalNAc
# Outline: as §1
# GlcNAc(b1-3)Man = biological target: GlcNAc(b1-3)Man
# Outline: as §1
# [8] = biological target: GlcNAc(b1-3)[GlcNAc(b1-4)][GlcNAc(b1-6)]GlcNAc
# Outline: as §1
# [9] = biological target: GlcNAc(b1-3)[GlcNAc(b1-6)]Gal(b1-4)GlcNAc
# Outline: as §1
# [10] = biological target: GlcNAc(b1-3)[GlcNAc(b1-6)]GalNAc
# Outline: as §1
# [11] = biological target: GlcNAc(b1-3)[GlcNAc(b1-6)]GlcNAc
# Outline: as §1
# [12] = biological target: GlcNAc(b1-3)[GlcNAc(b1-6)]GlcNAc(b1-4)GlcNAc
# Outline: as §1
# [13] = biological target: GlcNAc(b1-4)Gal(b1-4)GlcNAc
# Outline: as §1
# GlcNAc(b1-4)GlcNAc = biological target: GlcNAc(b1-4)GlcNAc
# Outline: as §1
# [14] = biological target: GlcNAc(b1-4)GlcNAc(b1-4)GlcNAc
# Outline: as §1
# [15] = biological target: GlcNAc(b1-4)GlcNAc(b1-4)GlcNAc(b1-4)GlcNAc(b1-4)GlcNAc
# Outline: as §1
# [16] = biological target: GlcNAc(b1-4)GlcNAc(b1-4)GlcNAc(b1-4)GlcNAc(b1-4)GlcNAc(b1-4)GlcNAc
# Outline: as §1
# [17] = biological target: GlcNAc(b1-4)[GlcNAc(b1-6)]GalNAc
# Outline: as §1
# [18] = biological target: GlcNAc(b1-6)Gal(b1-4)GlcNAc
# Outline: as §1
# GlcNAc(b1-6)GalNAc = biological target: GlcNAc(b1-6)GalNAc
# Outline: as §1
# GlcNAc3Prop(b1-4)GlcNAc = biological target: GlcNAc3Prop(b1-4)GlcNAc
# Outline: as §1
# Kdn(a2-3)Gal(b1-3)GlcNAc = biological target: Kdn(a2-3)Gal(b1-3)GlcNAc
# Outline: as §1
# Kdn(a2-3)Gal(b1-4)GlcNAc = biological target: Kdn(a2-3)Gal(b1-4)GlcNAc
# Outline: as §1
# [19] = biological target: Man(a1-2)Man(a1-2)Man(a1-3)Man
# Outline: as §1
# [20] = biological target: Man(a1-2)Man(a1-2)Man(a1-3)[Man(a1-2)Man(a1-3)[Man(a1-2)Man(a1-6)]Man(a1-6)]Man(b1-4)GlcNAc(b1-4)GlcNAc
# Outline: as §1
# [21] = biological target: Man(a1-2)Man(a1-2)Man(a1-3)[Man(a1-2)Man(a1-6)[Man(a1-3)]Man(a1-6)]Man(b1-4)GlcNAc(b1-4)GlcNAc
# Outline: as §1
# [22] = biological target: Man(a1-2)Man(a1-2)Man(a1-6)[Man(a1-3)]Man
# Outline: as §1
# Man(a1-2)Man(a1-3)Man = biological target: Man(a1-2)Man(a1-3)Man
# Outline: as §1
# [23] = biological target: Man(a1-2)Man(a1-3)[Man(a1-2)Man(a1-6)]Man
# Outline: as §1
# [24] = biological target: Man(a1-2)Man(a1-3)[Man(a1-2)Man(a1-6)]Man(a1-6)[Man(a1-2)Man(a1-2)Man(a1-3)]Man
# Outline: as §1
# [25] = biological target: Man(a1-2)Man(a1-3)[Man(a1-2)Man(a1-6)]Man(a1-6)[Man(a1-2)Man(a1-2)Man(a1-3)]Man(b1-4)GlcNAc(b1-4)GlcNAc
# Outline: as §1
# [26] = biological target: Man(a1-2)Man(a1-3)[Man(a1-3)[Man(a1-6)]Man(a1-6)]Man(b1-4)GlcNAc(b1-4)GlcNAc
# Outline: as §1
# [27] = biological target: Man(a1-2)Man(a1-3)[Man(a1-6)]Man(a1-6)[Man(a1-2)Man(a1-3)]Man(b1-4)GlcNAc(b1-4)GlcNAc
# Outline: as §1
# [28] = biological target: Man(a1-2)Man(a1-6)[Man(a1-3)]Man(a1-6)[Man(a1-2)Man(a1-2)Man(a1-3)]Man
# Outline: as §1
# [29] = biological target: Man(a1-2)Man(a1-6)[Man(a1-3)]Man(a1-6)[Man(a1-2)Man(a1-2)Man(a1-3)]Man(b1-4)GlcNAc(b1-4)GlcNAc
# Outline: as §1
# Man(a1-3)[Man(a1-6)]Man = biological target: Man(a1-3)[Man(a1-6)]Man
# Outline: as §1
# [30] = biological target: Man(a1-3)[Man(a1-6)]Man(a1-6)[Man(a1-2)Man(a1-3)]Man(b1-4)GlcNAc(b1-4)GlcNAc
# Outline: as §1
# [31] = biological target: Man(a1-3)[Man(a1-6)]Man(a1-6)[Man(a1-3)]Man
# Outline: as §1
# [32] = biological target: Man(a1-3)[Man(a1-6)]Man(a1-6)[Man(a1-3)]Man(b1-4)GlcNAc(b1-4)GlcNAc
# Outline: as §1
# [33] = biological target: Man(a1-3)[Man(a1-6)]Man(b1-4)GlcNAc(b1-4)GlcNAc
# Outline: as §1
# Man(a1-6)Man = biological target: Man(a1-6)Man
# Outline: as §1
# Man(b1-4)GlcNAc = biological target: Man(b1-4)GlcNAc
# Outline: as §1
# Neu5Ac(a2-3)Gal = biological target: Neu5Ac(a2-3)Gal
# Outline: as §1
# [34] = biological target: Neu5Ac(a2-3)Gal(b1-3)GalNAc
# Outline: as §1
# [35] = biological target: Neu5Ac(a2-3)Gal(b1-3)GalNAc(b1-3)Gal(a1-4)Gal(b1-4)Glc
# Outline: as §1
# [36] = biological target: Neu5Ac(a2-3)Gal(b1-3)GalNAc(b1-3)Gal(b1-4)GlcNAc
# Outline: as §1
# [37] = biological target: Neu5Ac(a2-3)Gal(b1-3)GalNAc(b1-4)[Neu5Ac(a2-3)]Gal(b1-4)Glc
# Outline: as §1
# [38] = biological target: Neu5Ac(a2-3)Gal(b1-3)GalNAc6S
# Outline: as §1
# [39] = biological target: Neu5Ac(a2-3)Gal(b1-3)GlcNAc
# Outline: as §1
# [40] = biological target: Neu5Ac(a2-3)Gal(b1-3)GlcNAc(b1-3)Gal(b1-3)GlcNAc
# Outline: as §1
# [41] = biological target: Neu5Ac(a2-3)Gal(b1-3)GlcNAc(b1-3)Gal(b1-4)GlcNAc
# Outline: as §1
# [42] = biological target: Neu5Ac(a2-3)Gal(b1-3)GlcNAc6S
# Outline: as §1
# [43] = biological target: Neu5Ac(a2-3)Gal(b1-3)[Fuc(a1-4)]GlcNAc
# Outline: as §1
# [44] = biological target: Neu5Ac(a2-3)Gal(b1-3)[Fuc(a1-4)]GlcNAc(b1-3)Gal(b1-4)[Fuc(a1-3)]GlcNAc
# Outline: as §1
# [45] = biological target: Neu5Ac(a2-3)Gal(b1-3)[Neu5Ac(a2-3)Gal(b1-4)]GlcNAc
# Outline: as §1
binder,measurement,setting,value
"NcCVNHO (Neurospora crassa), Q7S6U4 (protein) MSFHVTAEDARIEVRDNRTILFARLRREDGEWNDASYELDQIIGNNDGHFQWGGQNFTETAEDIRFHPKEGAAEQPILRARLRDCNGEFHDRDVNLTEIVENVNGEFQAKF",glycan array binding signal (z-score),[1],-0.245
same,glycan array binding signal (z-score),[2],-0.262
same,glycan array binding signal (z-score),[3],-0.132
same,glycan array binding signal (z-score),[4],-0.212
same,glycan array binding signal (z-score),GlcNAc(b1-3)Gal,-0.219
same,glycan array binding signal (z-score),[5],-0.209
same,glycan array binding signal (z-score),GlcNAc(b1-3)Gal(b1-4)Glc,-0.221
same,glycan array binding signal (z-score),[6],-0.219
same,glycan array binding signal (z-score),[7],-0.236
same,glycan array binding signal (z-score),GlcNAc(b1-3)GalNAc,-0.221
same,glycan array binding signal (z-score),GlcNAc(b1-3)Man,-0.191
same,glycan array binding signal (z-score),[8],-0.163
same,glycan array binding signal (z-score),[9],-0.236
same,glycan array binding signal (z-score),[10],-0.26
same,glycan array binding signal (z-score),[11],-0.06
same,glycan array binding signal (z-score),[12],-0.297
same,glycan array binding signal (z-score),[13],-0.225
same,glycan array binding signal (z-score),GlcNAc(b1-4)GlcNAc,-0.179
same,glycan array binding signal (z-score),[14],-0.237
same,glycan array binding signal (z-score),[15],-0.241
same,glycan array binding signal (z-score),[16],-0.242
same,glycan array binding signal (z-score),[17],-0.219
same,glycan array binding signal (z-score),[18],-0.22
same,glycan array binding signal (z-score),GlcNAc(b1-6)GalNAc,-0.246
same,glycan array binding signal (z-score),GlcNAc3Prop(b1-4)GlcNAc,-0.186
same,glycan array binding signal (z-score),Kdn(a2-3)Gal(b1-3)GlcNAc,-0.232
same,glycan array binding signal (z-score),Kdn(a2-3)Gal(b1-4)GlcNAc,-0.24
same,glycan array binding signal (z-score),[19],1.23
same,glycan array binding signal (z-score),[20],8.87
same,glycan array binding signal (z-score),[21],1.35
same,glycan array binding signal (z-score),[22],4.66
same,glycan array binding signal (z-score),Man(a1-2)Man(a1-3)Man,-0.116
same,glycan array binding signal (z-score),[23],4.86
same,glycan array binding signal (z-score),[24],0.786
same,glycan array binding signal (z-score),[25],2.38
same,glycan array binding signal (z-score),[26],0.23
same,glycan array binding signal (z-score),[27],-0.089
same,glycan array binding signal (z-score),[28],-0.195
same,glycan array binding signal (z-score),[29],1.47
same,glycan array binding signal (z-score),Man(a1-3)[Man(a1-6)]Man,-0.219
same,glycan array binding signal (z-score),[30],-0.23
same,glycan array binding signal (z-score),[31],-0.178
same,glycan array binding signal (z-score),[32],-0.178
same,glycan array binding signal (z-score),[33],-0.208
same,glycan array binding signal (z-score),Man(a1-6)Man,-0.194
same,glycan array binding signal (z-score),Man(b1-4)GlcNAc,-0.233
same,glycan array binding signal (z-score),Neu5Ac(a2-3)Gal,-0.234
same,glycan array binding signal (z-score),[34],-0.214
same,glycan array binding signal (z-score),[35],-0.21
same,glycan array binding signal (z-score),[36],-0.264
same,glycan array binding signal (z-score),[37],-0.244
same,glycan array binding signal (z-score),[38],-0.226
same,glycan array binding signal (z-score),[39],-0.217
same,glycan array binding signal (z-score),[40],-0.176
same,glycan array binding signal (z-score),[41],-0.183
same,glycan array binding signal (z-score),[42],-0.232
same,glycan array binding signal (z-score),[43],-0.242
same,glycan array binding signal (z-score),[44],0.291
same,glycan array binding signal (z-score),[45],-0.067
